Not every entry of the source has a single result; some have several. They are shown here; other results are not. An entry can have further records. The records of an entry are repeated measurements across runs, samples, wells, individuals or studies. Records carry a tag for their origin. Letters hold for one entry only.
Test system: Mycobacterium tuberculosis H37Rv growth inhibition, no glycerol
Assay: Confirmatory growth inhibition assay, Mycobacterium tuberculosis H37Rv, absence of glycerol (AID 504901)
Details: measured here: IC50 of growth inhibition

**Q.** Which IC50 does the source give for `O=C(CSc1nc2ccccc2c(=O)[nH]1)NC1CCCCC1` here?
**A.** 330 nM [sample A] and 20 nM [sample B]

From PubChem BioAssay AID504901 (Southern Research Specialized Biocontainment Screening …, 2011)
